Results from PubChem BioAssay AID1468 (National Center for Advancing Translational Sciences (NCATS), 2008).
The whole screen tested about 280,000 compounds, of which about 1,100 (0.39%) were called active. This list was built around the results that the source calls inconclusive (neither active nor inactive); the mix of calls is not that of the screen. Calls come from the whole dose curve; as a rule, active = well fitted inhibition curve with a large enough effect; inconclusive = small, poorly fitted or top-dose-only effect, or effect the other way; inactive = flat fitted curve, though single readings scatter. Potencies of inconclusive entries are left out as doubtful fits.

These molecules were tested against Microtubule-associated protein tau (Homo sapiens) (UniProt P10636) (assay: qHTS for Inhibitors of Tau Fibril Formation, Fluorescence Polarization). Conditions: K18 P301L tau heparin fibrillization, Alexa594 FP, 6 h; series mostly up to 57.7 µM.
Sequence of UniProt P10636 (P10636 whole entry, looked up, the tested form may be a part): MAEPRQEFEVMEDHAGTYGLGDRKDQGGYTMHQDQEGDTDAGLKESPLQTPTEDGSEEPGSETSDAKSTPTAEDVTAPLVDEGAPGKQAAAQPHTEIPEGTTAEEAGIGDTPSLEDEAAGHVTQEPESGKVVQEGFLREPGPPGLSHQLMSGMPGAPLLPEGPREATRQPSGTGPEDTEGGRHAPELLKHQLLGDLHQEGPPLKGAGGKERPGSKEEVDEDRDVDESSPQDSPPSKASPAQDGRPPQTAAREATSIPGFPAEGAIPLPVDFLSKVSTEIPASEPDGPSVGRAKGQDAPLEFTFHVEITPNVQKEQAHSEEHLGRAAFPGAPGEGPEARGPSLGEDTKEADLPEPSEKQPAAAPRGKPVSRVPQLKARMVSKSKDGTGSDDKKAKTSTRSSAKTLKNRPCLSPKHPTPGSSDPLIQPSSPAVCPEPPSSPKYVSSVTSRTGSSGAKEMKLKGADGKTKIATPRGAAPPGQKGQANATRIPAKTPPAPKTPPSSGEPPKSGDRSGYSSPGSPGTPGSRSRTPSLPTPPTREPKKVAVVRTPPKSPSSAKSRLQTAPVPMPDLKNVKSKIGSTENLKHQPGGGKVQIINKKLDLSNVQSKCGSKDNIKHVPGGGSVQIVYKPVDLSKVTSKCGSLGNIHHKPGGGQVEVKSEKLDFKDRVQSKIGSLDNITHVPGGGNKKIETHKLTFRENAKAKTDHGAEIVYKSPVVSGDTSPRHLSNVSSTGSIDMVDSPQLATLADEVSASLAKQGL
Procedure, shortened: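 Human K18 P301L fragment (15 uM unlabeled plus 0.24 uM Alexa 594-labeled) in 100 mM sodium acetate pH 7 with compound, aggregation induced by 20 uM heparin for 6 hr at 37 C. ThT (30 uM) added for 1 hr, then Alexa 594 FP read.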
Note: nearly all actives have a fitted effect of over 55% in size.
Potency is the fitted concentration of half-maximal effect; tags give direction and shape of the fitted curve.

Question: `Cc1ccc(CSc2sc(C(=O)c3ccccc3)c(N)c2C#N)cc1` was tested. Which Potency did it give?
Answer: Its Potency is “inactive”.

Question: With `Cc1ccc(NS(=O)(=O)c2ccc(NC(=O)N3CCCC3)cc2)cc1C` as the molecule, how does the Potency read?
Answer: Its Potency is “inactive”.

Question: With `O=[N+]([O-])c1ccc(Cl)cc1N1CCCCC1` as the molecule, how does the Potency read?
Answer: The Potency was “inactive”.

Question: `c1ccc2c3c(c(CN4CCCCC4)cc2c1)COC3` was tested. Which Potency did it give?
Answer: Its Potency is inconclusive [inhibitor, single point].

Question: How did the Potency turn out when `S=C(NCCc1ccccc1)Nc1ccc(Br)cc1` was run?
Answer: The Potency was inconclusive [inhibitor, partial curve].

Question: Which Potency does the source give for `COc1ccccc1NC(=O)Cn1nnc(-c2ccccc2NS(=O)(=O)c2ccccc2)n1` here?
Answer: Its Potency is inconclusive [inhibitor, partial curve].

Question: How did the Potency turn out when `O=C(Cc1cccs1)Nc1cccc(-c2nc3cc4ccccc4cc3[nH]2)c1` was run?
Answer: Its Potency is active: 28.2 µM.

Question: For `COc1ccc(CCN=C(NS(=O)(=O)c2ccc(Cl)cc2)c2ccccc2)cc1`, which Potency is on record?
Answer: Its Potency is inconclusive [inhibitor, full curve, poor fit].

Question: For `CCCCN(CC)CCNC(=O)c1cc2c(-c3ccc(Cl)cc3)nn(C)c2s1`, which Potency is on record?
Answer: Its Potency is inconclusive [inhibitor, partial curve].

Question: With `FC(F)Oc1ccc(-c2csc(NNC3=NCCCCC3)n2)cc1` as the molecule, how does the Potency read?
Answer: Its Potency is inconclusive [inhibitor, single point].

Question: Which Potency does the source give for `Cc1ccc(S(=O)(=O)c2nc(-c3ccco3)oc2SC(C)c2ccccc2)cc1` (stereo not given) here?
Answer: The Potency was inconclusive [inhibitor, single point].

Question: With `Cc1ccc(S(=O)(=O)Cn2cnnn2)cc1` as the molecule, how does the Potency read?
Answer: Its Potency is “inactive”.

Question: How did the Potency turn out when `CC(C)c1ccc(S(=O)(=O)c2nnn3c2nc(NC2CCCC2)c2sccc23)cc1` was run?
Answer: The Potency was inconclusive [inhibitor, partial curve].

Question: For `O=C(COC(=O)CCCNC(=O)c1ccc(Cl)cc1)Nc1cc(Cl)c(Cl)cc1Cl`, which Potency is on record?
Answer: The Potency was inconclusive [inhibitor, single point].

Question: For `Cc1ccc2c(=O)cc(CSc3ccccc3)[nH]c2c1C`, which Potency is on record?
Answer: Its Potency is inconclusive [inhibitor, partial curve].

Question: For `O=C(Nc1ccc(OC(F)F)cc1)Nc1cccc(C(F)(F)F)c1`, which Potency is on record?
Answer: The Potency was active: 25.1 µM.

Question: `O=C(Nc1ccc(CN2CCOCC2)cc1)c1ccc(-c2cc(Cl)ccc2Cl)o1` was tested. Which Potency did it give?
Answer: Its Potency is inconclusive [inhibitor, single point].

Question: How did the Potency turn out when `CCOc1ccc(N2C(=O)CC(SC(=NC)Nc3ccc(F)cc3)C2=O)cc1` (stereo not given) was run?
Answer: Its Potency is “inactive”.

Question: How did the Potency turn out when `COc1ccc2c(c1)-c1nc(NC(=O)c3cc(Cl)ccc3OC)sc1CC2` was run?
Answer: Its Potency is inconclusive [inhibitor, partial curve].

Question: With `CCN1/C(=C/c2ccc3cccc(C)c3[n+]2CC)Sc2ccccc21` as the molecule, how does the Potency read?
Answer: Its Potency is inconclusive [inhibitor, partial curve].

Question: How did the Potency turn out when `O=S(=O)(CCNCc1cccs1)c1ccc(Cl)cc1` was run?
Answer: Its Potency is inconclusive [inhibitor, single point].

Question: With `COc1cc(/C=C2\SC(c3ccc(C)cc3)=NC2=O)ccc1O` as the molecule, how does the Potency read?
Answer: Its Potency is inconclusive [inhibitor, full curve, poor fit].

Question: `S=c1[nH]nc(-c2ccccc2)n1/N=C/c1ccc(-c2ccccc2Cl)o1` was tested. Which Potency did it give?
Answer: Its Potency is “inactive”.

Question: Which Potency does the source give for `COC(=O)Cc1[nH]nc2c1C1(C(=O)N(Cc3ccc(Cl)cc3)c3ccccc31)C(C#N)=C(N)O2` (stereo not given) here?
Answer: The Potency was “inactive”.

Question: With `COc1ccc(N2CCN(C(=O)C(Cc3ccccc3)n3cccc3)CC2)cc1` (stereo not given) as the molecule, how does the Potency read?
Answer: The Potency was inconclusive [activator, partial curve].

Question: With `CC(C)c1cc(C(=O)Nc2cc(Cl)ccc2O)no1` as the molecule, how does the Potency read?
Answer: The Potency was inconclusive [activator, partial curve].

Question: How did the Potency turn out when `COC(=O)/C(C#N)=C/c1ccc(N2CCOCC2)c([N+](=O)[O-])c1` was run?
Answer: Its Potency is “inactive”.

Question: `O=C(Cn1c(Cc2ccccc2)nc2ccccc21)NCc1ccc2c(c1)OCO2` was tested. Which Potency did it give?
Answer: The Potency was “inactive”.

Question: Which Potency does the source give for `O=C(NN=C1c2ccccc2-c2ccccc21)c1ccccc1` here?
Answer: Its Potency is inconclusive [inhibitor, single point].

Question: `COc1ccc(C(=O)/C=C/c2ccc(O)cc2)cc1` was tested. Which Potency did it give?
Answer: The Potency was inconclusive [activator, single point].

Question: Which Potency does the source give for `Cc1ccc(NC(=O)C2CCN(C(=O)NC3CCCCC3)CC2)cc1` here?
Answer: Its Potency is inconclusive [inhibitor, full curve, poor fit].

Question: For `CCN(CC)c1ccc(NC(=O)c2ccccc2Br)cc1S(=O)(=O)Nc1ccccc1OC`, which Potency is on record?
Answer: Its Potency is inconclusive [inhibitor, single point].

Question: `CC(=O)c1c(C)oc2ccc(N(C(=O)Oc3ccccc3)S(=O)(=O)c3ccc(C(C)(C)C)cc3)cc12` was tested. Which Potency did it give?
Answer: Its Potency is “inactive”.

Question: Which Potency does the source give for `CC(=O)Nc1ccc(C(=O)N/N=C/c2ccccc2OCc2ccccc2)cc1` here?
Answer: The Potency was inconclusive [inhibitor, partial curve].

Question: How did the Potency turn out when `CN(NC(=S)Nc1ccc(OC(F)F)cc1)C(=S)Nc1ccc(OC(F)F)cc1` was run?
Answer: Its Potency is “inactive”.

Question: For `COc1ccc(C2CC(=O)C=C(NCc3ccccc3)C2)cc1` (stereo not given), which Potency is on record?
Answer: The Potency was inconclusive [inhibitor, single point].

Question: `Cc1c(Cl)cccc1NC(CC(=O)c1ccccc1)C(=O)O` (stereo not given) was tested. Which Potency did it give?
Answer: The Potency was inconclusive [inhibitor, single point].

Question: How did the Potency turn out when `C(=Nc1ccc(Nc2ccccc2)cc1)c1ccc2ccccc2c1` was run?
Answer: Its Potency is inconclusive [inhibitor, partial curve].

Question: How did the Potency turn out when `Oc1c(Cl)cc(Cl)cc1CNc1ccc(Br)cn1` was run?
Answer: Its Potency is inconclusive [inhibitor, single point].

Question: For `COc1ccc(CNC(=O)C(C#N)c2nc3ccccc3nc2N2CCCC2)cc1` (stereo not given), which Potency is on record?
Answer: Its Potency is “inactive”.

Question: For `CCC1CN2CCC1CC2[C@@H](NC(=S)Nc1cc(C(F)(F)F)cc(C(F)(F)F)c1)c1cccc2ccc(OC)cc12` (stereo not given in full), which Potency is on record?
Answer: Its Potency is inconclusive [inhibitor, partial curve].

Question: How did the Potency turn out when `COc1ccccc1-c1c(C)nn2c(N3CCN(c4cccc(Cl)c4)CC3)cc(C)nc12` was run?
Answer: The Potency was inconclusive [activator, single point].

Question: With `O=C(N=C1SCC(=O)N1c1ccccc1)c1ccco1` as the molecule, how does the Potency read?
Answer: Its Potency is “inactive”.

Question: With `O=[N+]([O-])/C(C(Cl)=C(Cl)Cl)=C(/NC1CC1)Sc1ccccc1` as the molecule, how does the Potency read?
Answer: Its Potency is inconclusive [inhibitor, single point].

Question: Which Potency does the source give for `CCOc1ccc(N2C(=O)S/C(=C\c3cccn3C)C2=O)cc1` here?
Answer: The Potency was “inactive”.
